The supplement of paper PMC11417369
± gives the standard deviation of the averaged measurements. This is one part of the list.

What follows are sequences tested on PfAP2-LT AP2 domain (GST-tagged) (assay: gcPBM binding intensity (ln(normalized median fluorescence intensity)); higher = stronger DNA binding).
How it was run: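 The binding buffer was 1× PBS containing 1% milk, 0.2 mg/ml BSA, 0.5% salmon testes DNA and 0.03% Triton X-100. In it, GST-tagged P. falciparum DNA-binding domains expressed in E. coli were applied for 1 h to an Agilent 4 × 180k array of primer-extended double-stranded 36-bp intergenic genomic probes plus negative controls. Binding intensity, read with Alexa488 anti-GST antibody and a 488 nm scan, is the highest Masliner-normalised natural-log median intensity across replicate spots of either probe orientation.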
For “ATAACAAAATAAAACACACACACAAATGTACCTATA [CACACA_site7190]”, the “gcPBM binding intensity (ln)” value was 9.75 ± 0.3.
With “TATTTATAAATATAAACACACAACATTATATGCATA [CACACA_site5748]” the “gcPBM binding intensity (ln)” value was 8.8 ± 0.4.
“TACATATTTGTATATGCACACATAAATTTTTCCATT [CACACA_site9148]” was tested, and the “gcPBM binding intensity (ln)” value was 8.96 ± 0.41.
For “AAATATTTATACCACACACACATACCTCTATTTGTA [CACACA_site6957]”, the “gcPBM binding intensity (ln)” value was 9.71 ± 0.18.
For “AATGGATTAGCTAGCACACACAAAAAAAAAAAAAAA [CACACA_site3031]”, the “gcPBM binding intensity (ln)” value was 9.14 ± 0.58.
In the case of “TAAATATAGGGTAATAGTACATAATTATATTCTTTT [XGTACX_site3883]”, the “gcPBM binding intensity (ln)” value is reported as 8.65 ± 0.49.
In the case of “TTTTTTTTTTTTTAATGTACCCATGGGCACATAGGT [XGTACX_site486]”, the “gcPBM binding intensity (ln)” value is reported as 8.31 ± 0.47.
With TATATTTATATATTAGTGCACTTTTTGTTAATTTTT the “gcPBM binding intensity (ln)” value was 8.81 ± 0.52.
“ATAGCCAAAAATCATGCACACCTAAAAAAAAAAAAA [CACACA_site8826]” was tested, and the “gcPBM binding intensity (ln)” value was 8.9 ± 0.48.
With “TATATTTATGTATATGTGCACATAAATTTAAGAATG [GTGCAC_site9512]” the “gcPBM binding intensity (ln)” value was 8.71 ± 0.4.
In the case of “ATTTTTAATCATTTACAACCTAGTGATTATACAAAT [CACACA_negctrl_site1089]”, the “gcPBM binding intensity (ln)” value is reported as 8.56 ± 0.49.
For “CGTATGCGTATATACACACCCACGTATATATATAAA [CACACA_site3200]”, the “gcPBM binding intensity (ln)” value was 8.88 ± 0.39.
For “ATATAATAATTGTACACATGCACACACAAATATTAT [TGCATGCA_site204]”, the “gcPBM binding intensity (ln)” value was 9.47 ± 0.34.
For “TTCATTTTAATAATATGTACATAATATATTTAAAAA [XGTACX_site634]”, the “gcPBM binding intensity (ln)” value was 8.16 ± 0.36.
In the case of “GTATATATATTTGTACGTACATATTGTTGTAAACAC [XGTACX_site8833]”, the “gcPBM binding intensity (ln)” value is reported as 9.14 ± 0.52.
With “AAGAGAGACATCAACACACATACGTATGTATAGAAA [CACACA_site1397]” the “gcPBM binding intensity (ln)” value was 9.23 ± 0.59.
With “TTTTTTATTGTGATACGTATATTATTTTATGATTAA [GTGCAC_negctrl_site202]” the “gcPBM binding intensity (ln)” value was 8.7 ± 0.41.
In the case of “GGGGGTAGGGGAAGAAGTACAATGATCACTACAGTA [XGTACX_site1169]”, the “gcPBM binding intensity (ln)” value is reported as 9.045 ± 0.035.
“ATGTAAATGTTATTATGTACATATTTATTCTTCAAA [XGTACX_site7377]” was tested, and the “gcPBM binding intensity (ln)” value was 8.71 ± 0.45.
“TTAAGTCATAAATAAAGTACATAAATATAATATATA [XGTACX_site6304]” was tested, and the “gcPBM binding intensity (ln)” value was 8.66 ± 0.35.
In the case of “TCCAATTAAATATATGAACACACATGTGAACTTTCT [CACACA_site9318]”, the “gcPBM binding intensity (ln)” value is reported as 8.88 ± 0.44.
In the case of “TTAAAGCACCCATGCACACACACAAGGGAAAAGAAA [CACACA_site4289]”, the “gcPBM binding intensity (ln)” value is reported as 9.49 ± 0.4.
With “AAGGAATATTAAGTGGGTACTAAAAAAAAATTAATT [XGTACX_site331]” the “gcPBM binding intensity (ln)” value was 8.59 ± 0.57.
“TTTTTAATTAACTTTGTAAACTTATATATATATATA [TGCATGCA_negctrl_site311]” was tested, and the “gcPBM binding intensity (ln)” value was 8.71 ± 0.11.
In the case of GAAGTAGATGGAAAAGTGCACTGTAATGGTTATATT, the “gcPBM binding intensity (ln)” value is reported as 9.02 ± 0.42.
